{"source": "PubChem BioAssay AID434955", "about": "(Southern Research Specialized Biocontainment Screening …, 2010)", "note": "The other results are listed elsewhere or left out. Shown are side measurements of this screen, not its main read-out; they come without a call. Compounds called inactive in the main read-out are mostly missing here."}
{"test": "beta-lactam sensitization of Mtb H37Rv, H37Rv (AID 434955);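 note: growth measured after seven days incubation then overnight dye step; 0% = bacteria only wells and 100% = bacteria with antibiotic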", "conditions": "M. tuberculosis H37Rv growth with meropenem, percent inhibition; measured here: primary screen without meropenem; at 25 µM", "units": {"inhibition": "%"}}
{"smiles": "COCCn1c(Cc2ccccc2)nnc1SCC(=O)N(C)C", "inhibition": -10.7}
{"smiles": "CCC1CCCCN1C(=O)CSc1nnc(-c2ccc(Cl)cc2)o1", "note": "(centres undefined)", "inhibition": 1.07}
{"smiles": "COc1cc(OC)c(C(=O)NNC(=S)NC2CCCCC2)cc1OC", "inhibition": -2.47}
{"smiles": "CN1CCN(S(=O)(=O)c2cccc([N+](=O)[O-])c2)CC1", "inhibition": -2.5}
{"smiles": "Cc1cc(C(=O)CSc2nc3ccccc3n2CCC#N)c(C)n1Cc1cccs1", "inhibition": -2.36}
{"smiles": "CCc1[nH]nc(C(=O)N2CCCC(N3CCN(c4ccccc4C)CC3)C2)c1C", "note": "(centres undefined)", "inhibition": 11.2}
{"smiles": "Cc1cc(Nc2ccccc2F)n2ncnc2n1", "inhibition": -4.52}
{"smiles": "Cc1cc(C)c2c(-n3cccc3)c(C(=O)O)sc2n1", "inhibition": 4.78}
{"smiles": "Cc1oc(-c2cccc(Cl)c2)nc1CN1CCC(C(=O)NCCCN2CCCC2=O)CC1", "inhibition": -14.8}
{"smiles": "Cc1cc(C)n(CCC(=O)N/N=C/c2ccc(O)cc2)n1", "inhibition": -2.31}
{"smiles": "Cc1ccc2c(c1)N(CC(=O)NCCCN1CCCCC1C)C(=O)c1cccnc1O2", "note": "(centres undefined)", "inhibition": -2.75}
{"smiles": "COc1cccc(CC(=O)Nc2cc(C(F)(F)F)ccc2N2CCCC2)c1", "inhibition": -7.85}
{"smiles": "Cc1onc(-c2ccccc2Cl)c1C(=O)OCC(=O)Nc1ccc2c(c1)OCO2", "inhibition": -3.47}
{"smiles": "Cc1ccc2c(c1)NC(=O)C(CC(=O)Nc1ccc(CN3CCC(C)CC3)cc1)O2", "note": "(centres undefined)", "inhibition": -8.12}
{"smiles": "Cc1nc(CC(=O)N2CCN(c3cccc(C)c3C)CC2)cs1", "inhibition": -17.3}
{"smiles": "CC(=O)Nc1ccc(C2NC(=O)c3ccccc3O2)cc1", "note": "(centres undefined)", "inhibition": 2.48}
{"smiles": "CCCC(=O)N(CCN1CCOCC1)c1nc2c(OC)ccc(OC)c2s1", "inhibition": -4.18}
{"smiles": "Cc1oncc1C(=O)Nc1cccc(C#N)c1", "inhibition": -6.95}
{"smiles": "O=C(NCCC(=O)N1CCCCC1)c1ccccc1Cl", "inhibition": -3.32}
{"smiles": "COc1ccc(/C=C2\\CCCC(C(=O)C(F)(F)F)=C2O)cc1OC", "inhibition": 5.85}
{"smiles": "O=C(/C=C/c1ccccc1[N+](=O)[O-])c1ccc(F)cc1", "inhibition": 28.5}
{"smiles": "Cc1cc(C2C(=O)c3ccccc3C2=O)c(C)c(C)c1C", "inhibition": 30.3}
{"smiles": "COC(=O)Nc1nnc(Cc2ccccc2)s1", "inhibition": -2.16}
{"smiles": "CCOc1ccc(CCNC(=O)CN2C(=O)c3cccnc3Oc3ccc(C)cc32)cc1OCC", "inhibition": -8.05}
{"smiles": "CN(Cc1cccnc1)C(=O)c1cc(COc2ccc3c(c2)CCCC3)on1", "inhibition": 89.9}
{"smiles": "COc1cc(/C=N/NC(N)=S)ccc1OC(=O)c1ccc(C)cc1", "inhibition": 43.5}
{"smiles": "COC(=O)c1sc2nc(SCc3ccccc3C)n(N)c(=O)c2c1C", "inhibition": -6.48}
{"smiles": "O=C(Cc1ccc(Cl)cc1Cl)Nc1ccc(OC(F)F)c(Cl)c1", "inhibition": 38.1}
{"smiles": "Cc1cccnc1NC(=O)c1cc2ccccc2oc1=O", "inhibition": 3.96}
{"smiles": "CCOC(=O)c1nn(-c2cccc(Cl)c2)c(C)c1C(C)=O", "inhibition": 2.47}
{"smiles": "CN(C)/N=C/c1ccc(/C=N/NC(N)=S)o1", "inhibition": 10.6}
{"smiles": "O=C(/C(=C(\\[O-])c1ccccc1)[n+]1ccc2ccccc2c1)c1ccc(Cl)cc1", "inhibition": 2.35}
{"smiles": "CCCC(C)C1(CC)C(=O)NC(=Nc2ccccc2OC)NC1=O", "note": "(centres undefined)", "inhibition": 0.27}
{"smiles": "COc1ccc(C/C(=N\\O)c2ccc(OC)cc2)cc1", "inhibition": 9.43}
{"smiles": "CC(C)(C)N(Cc1ccccc1)C(=O)COC(=O)c1ccc([N+](=O)[O-])o1", "inhibition": 62.5}
{"smiles": "Cc1ccc(/C=N/N2C(=O)c3ccccc3NC2c2ccc(C)cc2)cc1", "note": "(centres undefined)", "inhibition": -1.27}
{"smiles": "OCCCc1cn(-c2ccccc2)c2ccccc12", "inhibition": -0.86}
{"smiles": "Cc1cc(C)c2sc(N(CCCN(C)C)C(=O)COc3ccc(Cl)cc3)nc2c1", "inhibition": 1.33}
{"smiles": "CC1CCCC(C)N1CCCNC(=O)CN1C(=O)c2cccnc2Oc2ccc(Cl)cc21", "note": "(centres undefined)", "inhibition": 1.63}
{"smiles": "Cc1cccc(Cc2c(C)nc3nc(SCC(=O)NCc4ccco4)nn3c2C)c1", "inhibition": -4.32}
{"smiles": "O=C(c1ccc(Cl)s1)N1CCN(C23CC4CC(CC(C4)C2)C3)CC1", "inhibition": -9.84}
{"smiles": "O=C(c1ccc(OC2CCN(CCO)CC2)cc1)N1CCCC1", "inhibition": -5.6}
{"smiles": "Cc1ccc(C(=O)C[n+]2cc(-c3ccc(C)cc3)n3c2CCCCC3)cc1", "inhibition": 99.7}
{"smiles": "COc1cccc(/C=N/NC(N)=S)c1OS(=O)(=O)c1ccccc1", "inhibition": 34}
{"smiles": "COc1ccc(NC(=O)CSc2ncnc3[nH]ncc23)cc1", "inhibition": -0.61}
{"smiles": "COc1cccc(S(=O)(=O)NCc2ccc(C(=O)N3CCN(c4ccccc4OC)CC3)cc2)c1", "inhibition": 3.43}
{"smiles": "Cc1ccc(CCNC(=O)C2CCC(=O)N(Cc3cccc(F)c3)C2)cc1", "note": "(centres undefined)", "inhibition": 3.38}
{"smiles": "O=C(O)Cn1nc(-c2ccc(F)cc2)oc1=O", "inhibition": -3.2}
{"smiles": "O=C(NC1CCN(C(=O)NC2CCCCC2)CC1)c1ccco1", "inhibition": 3.7}
{"smiles": "Cc1ccc(N2CC(C(=O)Nc3c4c(nn3C(C)(C)C)CS(=O)(=O)C4)CC2=O)cc1C", "note": "(centres undefined)", "inhibition": 3.78}
{"smiles": "CC1c2[nH]c3ccccc3c2C[C@H]2C(=O)N(CCCN(C)C)CC(=O)N12", "note": "(some centres undefined)", "inhibition": -0.53}
{"smiles": "COc1ccccc1C(=O)Nc1nnc(SCC(=O)NCC2CCCO2)s1", "note": "(centres undefined)", "inhibition": -4.32}
{"smiles": "Cc1ccccc1CN1CCN(CC(=O)NCc2ccccc2)C1=O", "inhibition": -3.71}
{"smiles": "Cc1ccc(-c2nnc(NC(=O)Cc3ccc(F)cc3)o2)c(C)c1", "inhibition": 83.8}
{"smiles": "O=C(Nc1ccccc1)c1c2c(nc3ccccc13)CCCC2", "inhibition": 4.68}
{"smiles": "C=C1C(=O)O[C@@H]2[C@H]1[C@@H](OC(=O)/C(C)=C/C)C/C(C)=C\\C(=O)/C=C(\\C)[C@@H]2O", "inhibition": 44.7}
{"smiles": "Cc1ccc(S(=O)(=O)N/N=C/c2ccccc2O)cc1", "inhibition": 3.2}
{"smiles": "Cc1cc(Cl)c2oc(C(=O)NCCN3CCCCC3CO)c(C)c2c1", "note": "(centres undefined)", "inhibition": -5.49}
{"smiles": "Cc1ccc(NS(=O)(=O)c2ccc(NC(=O)C3CC3)cc2)c(C)c1", "inhibition": 0.85}
{"smiles": "CCn1nc(C)cc1C(=O)N1CCCC(N2CCN(c3cccc(Cl)c3)CC2)C1", "note": "(centres undefined)", "inhibition": 7.13}
{"smiles": "CCc1cc(=O)[nH]c(SCc2cccc3ccccc23)n1", "inhibition": 4.54}
{"smiles": "COc1cccc(NC(=O)CCC2CCN(C(=O)c3cncs3)CC2)c1", "inhibition": 2.06}
{"smiles": "CCCc1cc(=O)oc2c(C)c(O[C@@H]3O[C@H](CO)[C@@H](O)[C@H](O)[C@H]3O)ccc12", "inhibition": -8.55}
{"smiles": "COc1cc(/C=C(\\C#N)C(=O)Nc2ccc3ccccc3c2)c([N+](=O)[O-])cc1OC", "inhibition": 6.36}
{"smiles": "Cc1cccc(C)c1NC(=O)CNC(=O)c1cn(-c2ccccc2)nc1-c1ccccc1", "inhibition": 5.16}
{"smiles": "N#C/C(=C(/O)COC(=O)CCc1ccc(S(=O)(=O)N2CCOCC2)cc1)c1nc2ccccc2[nH]1", "inhibition": 32}
{"smiles": "CCCCc1c(O)nc2n(c1=O)CCS2", "inhibition": -1.8}
{"smiles": "Cc1c(Cl)ccc2c1NC(=O)[C@]21N[C@@H](Cc2ccccc2)[C@H]2C(=O)N(c3ccc(F)cc3)C(=O)[C@H]21", "inhibition": 99.8}
{"smiles": "Cc1nnc(SCC2=C(C(=O)O)N3C(=O)C(NC(=O)COc4ccc(F)cc4)C3SC2)s1", "note": "(centres undefined)", "inhibition": -12.7}
{"smiles": "COc1cccc(CN2CC(C(=O)N3CCCCCC3)CCC2=O)c1", "note": "(centres undefined)", "inhibition": 3.88}
{"smiles": "CCOC(=O)N1CCN(C(=O)CSc2nnc(COc3ccccc3)o2)CC1", "inhibition": 25.4}
{"smiles": "Cc1ccc(S(=O)(=O)N2CCC(C(=O)OC(C)C(=O)NCc3ccccc3)CC2)cc1C", "note": "(centres undefined)", "inhibition": 0.49}
{"smiles": "O=C1NC(c2ccc(Br)cc2)Nc2sc3c(c21)CCC3", "note": "(centres undefined)", "inhibition": -27.4}
{"smiles": "CCn1cc(C(=O)O)c(=O)c2cc(F)c(N3CCN(C(=S)NC(=O)c4ccccc4C)CC3)cc21", "inhibition": 38.1}
{"smiles": "O=C(CSc1nnc(SCc2ccccc2)s1)N/N=C/c1ccc(Cl)cc1Cl", "inhibition": 24.9}
{"smiles": "COc1ccc(N2CCN(C(=O)C3CCCN(S(=O)(=O)c4cccc5cccnc45)C3)CC2)cc1", "note": "(centres undefined)", "inhibition": -2.11}
{"smiles": "COC(=O)c1ccc(N2CCN(C)CC2)c(NC(=O)COc2ccc(C)cc2)c1", "inhibition": 6.91}
{"smiles": "O=C(Nc1nnc(SCc2ccccc2F)s1)C1=COCCO1", "inhibition": 1.58}
{"smiles": "COc1ccc(CCNC(=O)CCc2nnc(Cc3ccc4c(c3)OCO4)o2)c(OC)c1", "inhibition": 2.72}
{"smiles": "CCN1CCN(CCCNC(=O)C2CCN(c3nnc(-n4c(C)ccc4C)s3)CC2)CC1", "inhibition": 1.1}
{"smiles": "Cc1ccc(N(CCC#N)C(=O)COC(=O)c2ccccn2)cc1", "inhibition": 2.91}
{"smiles": "O=C(CCS(=O)(=O)c1ccccc1)Nc1nc2cc3c(cc2s1)OCCO3", "inhibition": 13}
{"smiles": "CC1CCN(Cc2nnnn2CCCC(=O)NC(c2ccccn2)C(F)(F)F)CC1", "note": "(centres undefined)", "inhibition": 6.91}
{"smiles": "CC1CCc2c(sc3nc(CN4CCOCC4)nc(Sc4ccccc4)c23)C1", "note": "(centres undefined)", "inhibition": 8.68}
{"smiles": "CC(NC(=O)c1ccccc1)C(=O)OCC(=O)N1c2ccccc2Sc2ccccc21", "note": "(centres undefined)", "inhibition": -2.59}
{"smiles": "Cc1cc(N/C(=N\\S(=O)(=O)c2ccc(Cl)cc2)c2ccc(F)cc2)no1", "inhibition": 10.9}
{"smiles": "O=C(NC1CCCC1)c1ccccc1OCc1ccccc1", "inhibition": 15.4}
{"smiles": "Cc1c(C(=O)NC(=S)Nc2ccccc2N2CCCC2)cccc1[N+](=O)[O-]", "inhibition": 31.9}
{"smiles": "CC1CCC(C(=O)NC(C(=O)N2CCc3ccccc3C2)C(C)C)CC1", "note": "(centres undefined)", "inhibition": 5.45}
{"smiles": "NC(=O)C1CCN(C(=O)COCc2cc(-c3ccc4c(c3)OCO4)on2)CC1", "inhibition": 1.04}
{"smiles": "O=C(Cc1ccccc1)Nc1ccnn1C1CCN(Cc2ccc(CO)o2)CC1", "inhibition": -6.98}
{"smiles": "O=C(Cn1nc(-c2ccccc2)c2ccccc2c1=O)Nc1cccnc1", "inhibition": -2.67}
{"smiles": "COC(=O)c1cccc(NC(=O)CC2C(=O)NCCN2C(=O)Nc2cc(C)cc(C)c2)c1", "note": "(centres undefined)", "inhibition": 19.4}
{"smiles": "O=C(CCN1C(=O)/C(=C\\c2cccs2)SC1=S)NC1=NCCS1", "inhibition": 3.82}
{"smiles": "C=CCN(CC=C)CCOc1ccccc1", "inhibition": -7.24}
{"smiles": "CCOc1ccc(-c2csc(C3COc4ccccc4O3)n2)cc1", "note": "(centres undefined)", "inhibition": 7.58}
{"smiles": "Cc1ccc(C(=O)N/C(=C\\c2ccco2)C(=O)NCCN2CCOCC2)cc1C", "inhibition": -2.69}
{"smiles": "CCN1C[C@]2(COC(=O)c3ccccc3N)CC[C@H](OC)C34[C@@H]5C[C@H]6[C@H](OC)[C@@H]5[C@](O)(C[C@@H]6OC)[C@@](O)([C@H]13)[C@@H](OC)[C@@H]42", "inhibition": -1.77}
{"smiles": "O=C(NCc1nnc(SCC(=O)N2CCCC2)o1)c1cccc(C(F)(F)F)c1", "inhibition": 1.49}
{"smiles": "O=C(N/N=C/c1ccc(Br)s1)c1c[nH]c2ccccc12", "inhibition": -9.2}
{"smiles": "Fc1ccc(-c2nnc(CSc3nnc(-c4ccc5c(c4)OCO5)o3)o2)cc1", "inhibition": -1.77}
{"smiles": "CN(CC(=O)NC1CC1)S(=O)(=O)c1ccc(Br)cc1", "inhibition": 2.4}
{"smiles": "CSCCC(NS(=O)(=O)c1ccc(C)cc1)C(=O)NCCc1c[nH]c2ccccc12", "note": "(centres undefined)", "inhibition": 25.7}
{"smiles": "COCCC(=O)N1CCC(Oc2ccc(C(=O)N3CCCCC3CCO)cc2)CC1", "note": "(centres undefined)", "inhibition": 0.25}
